Results are given in words; binding and its absence hold for the method and conditions named. Binding seen in cells or lysates may run through a third protein. Some entries that bind do so weakly or less than the wild type. For part of these data: Sequences can lack the tags named with a protein.
Key:
[1] = target: T1, Dbp5 as precipitated in the Dbp5 IPs (tag not told) (S. cerevisiae) (UniProt P20449); assay: co-IP; yeast lysates; GFP-Trap_A beads (GFP-tagged baits) or IgG-Sepharose (TAP-tagged baits), 3 h at 4°C, western blot; wild type and the strains sup45-2, rat8-2, rat7ΔN shifted to 37°C for 1 h; also 0.5 mg/ml cycloheximide for 30 min; also high copy RLI1
T1 sequence: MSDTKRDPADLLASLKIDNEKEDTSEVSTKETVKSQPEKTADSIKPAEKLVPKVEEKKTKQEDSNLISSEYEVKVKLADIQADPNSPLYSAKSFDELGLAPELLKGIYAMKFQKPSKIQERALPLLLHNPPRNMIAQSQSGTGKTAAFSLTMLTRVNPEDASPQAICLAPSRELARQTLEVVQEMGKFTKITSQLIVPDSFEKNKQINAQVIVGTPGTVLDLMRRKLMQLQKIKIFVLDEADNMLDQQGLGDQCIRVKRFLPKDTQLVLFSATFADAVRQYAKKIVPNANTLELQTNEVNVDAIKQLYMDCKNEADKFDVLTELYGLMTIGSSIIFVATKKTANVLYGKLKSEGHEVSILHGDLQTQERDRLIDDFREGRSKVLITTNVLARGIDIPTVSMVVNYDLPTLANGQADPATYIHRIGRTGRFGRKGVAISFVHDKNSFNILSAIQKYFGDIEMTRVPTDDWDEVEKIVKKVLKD

Sequences of proteins named here, by UniProt entry; tags and fusion partners are left off. A change or cut given only in a name is not applied to a line headed by its entry.
UniProt Q05775: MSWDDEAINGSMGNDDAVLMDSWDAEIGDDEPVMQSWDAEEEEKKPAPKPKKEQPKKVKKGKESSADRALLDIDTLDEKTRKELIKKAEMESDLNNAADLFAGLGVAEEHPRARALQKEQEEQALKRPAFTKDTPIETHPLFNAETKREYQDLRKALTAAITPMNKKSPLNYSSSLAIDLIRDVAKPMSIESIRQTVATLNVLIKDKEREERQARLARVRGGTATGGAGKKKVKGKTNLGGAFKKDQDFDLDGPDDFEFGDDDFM
UniProt P12385: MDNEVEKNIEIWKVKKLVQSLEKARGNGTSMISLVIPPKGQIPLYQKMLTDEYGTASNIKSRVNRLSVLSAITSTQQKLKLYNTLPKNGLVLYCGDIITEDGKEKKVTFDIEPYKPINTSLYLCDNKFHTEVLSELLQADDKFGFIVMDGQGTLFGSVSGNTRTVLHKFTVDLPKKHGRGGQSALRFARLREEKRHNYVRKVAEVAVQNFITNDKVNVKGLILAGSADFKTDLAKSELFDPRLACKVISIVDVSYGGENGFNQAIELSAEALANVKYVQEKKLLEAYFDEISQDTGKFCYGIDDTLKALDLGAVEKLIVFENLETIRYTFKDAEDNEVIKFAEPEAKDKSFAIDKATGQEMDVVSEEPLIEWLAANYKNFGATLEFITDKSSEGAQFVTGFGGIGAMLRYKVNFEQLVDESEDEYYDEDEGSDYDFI
UniProt P05453: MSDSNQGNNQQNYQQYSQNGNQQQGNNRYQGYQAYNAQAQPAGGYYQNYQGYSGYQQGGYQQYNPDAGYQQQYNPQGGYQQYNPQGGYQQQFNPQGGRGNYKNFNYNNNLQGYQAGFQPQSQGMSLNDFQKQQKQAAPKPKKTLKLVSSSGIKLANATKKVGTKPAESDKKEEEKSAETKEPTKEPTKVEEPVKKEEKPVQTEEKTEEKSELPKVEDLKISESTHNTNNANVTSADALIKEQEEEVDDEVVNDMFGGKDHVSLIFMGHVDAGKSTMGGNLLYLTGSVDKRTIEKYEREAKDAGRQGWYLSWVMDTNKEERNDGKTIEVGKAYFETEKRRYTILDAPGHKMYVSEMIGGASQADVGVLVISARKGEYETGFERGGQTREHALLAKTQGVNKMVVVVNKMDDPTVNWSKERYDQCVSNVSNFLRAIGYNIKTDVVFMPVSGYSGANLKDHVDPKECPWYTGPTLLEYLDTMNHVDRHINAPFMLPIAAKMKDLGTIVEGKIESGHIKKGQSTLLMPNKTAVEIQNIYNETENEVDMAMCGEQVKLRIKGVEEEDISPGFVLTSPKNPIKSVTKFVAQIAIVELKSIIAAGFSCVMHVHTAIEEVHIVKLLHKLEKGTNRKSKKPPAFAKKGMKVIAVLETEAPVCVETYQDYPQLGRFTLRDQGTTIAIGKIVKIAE
UniProt P32497: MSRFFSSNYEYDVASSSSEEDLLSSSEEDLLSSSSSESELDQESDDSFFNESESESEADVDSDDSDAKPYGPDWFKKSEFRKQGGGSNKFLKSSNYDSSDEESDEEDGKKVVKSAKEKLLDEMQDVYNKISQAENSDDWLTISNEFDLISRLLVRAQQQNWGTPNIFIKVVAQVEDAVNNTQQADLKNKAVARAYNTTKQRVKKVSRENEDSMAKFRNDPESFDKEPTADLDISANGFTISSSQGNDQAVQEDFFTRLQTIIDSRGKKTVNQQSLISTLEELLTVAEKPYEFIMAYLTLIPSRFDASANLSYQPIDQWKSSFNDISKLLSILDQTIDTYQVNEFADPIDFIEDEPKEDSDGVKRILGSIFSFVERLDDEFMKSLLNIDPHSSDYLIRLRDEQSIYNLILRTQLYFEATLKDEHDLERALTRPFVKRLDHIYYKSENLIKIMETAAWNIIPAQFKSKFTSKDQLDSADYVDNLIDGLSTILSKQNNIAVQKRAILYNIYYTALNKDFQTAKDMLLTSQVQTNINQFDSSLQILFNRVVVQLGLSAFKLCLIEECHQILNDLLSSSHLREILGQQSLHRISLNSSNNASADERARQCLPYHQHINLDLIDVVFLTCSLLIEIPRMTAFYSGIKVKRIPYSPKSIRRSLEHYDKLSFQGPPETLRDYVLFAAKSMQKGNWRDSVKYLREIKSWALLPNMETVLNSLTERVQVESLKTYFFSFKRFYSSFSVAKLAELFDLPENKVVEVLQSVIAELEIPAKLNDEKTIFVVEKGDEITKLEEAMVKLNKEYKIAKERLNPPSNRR
UniProt Q03195: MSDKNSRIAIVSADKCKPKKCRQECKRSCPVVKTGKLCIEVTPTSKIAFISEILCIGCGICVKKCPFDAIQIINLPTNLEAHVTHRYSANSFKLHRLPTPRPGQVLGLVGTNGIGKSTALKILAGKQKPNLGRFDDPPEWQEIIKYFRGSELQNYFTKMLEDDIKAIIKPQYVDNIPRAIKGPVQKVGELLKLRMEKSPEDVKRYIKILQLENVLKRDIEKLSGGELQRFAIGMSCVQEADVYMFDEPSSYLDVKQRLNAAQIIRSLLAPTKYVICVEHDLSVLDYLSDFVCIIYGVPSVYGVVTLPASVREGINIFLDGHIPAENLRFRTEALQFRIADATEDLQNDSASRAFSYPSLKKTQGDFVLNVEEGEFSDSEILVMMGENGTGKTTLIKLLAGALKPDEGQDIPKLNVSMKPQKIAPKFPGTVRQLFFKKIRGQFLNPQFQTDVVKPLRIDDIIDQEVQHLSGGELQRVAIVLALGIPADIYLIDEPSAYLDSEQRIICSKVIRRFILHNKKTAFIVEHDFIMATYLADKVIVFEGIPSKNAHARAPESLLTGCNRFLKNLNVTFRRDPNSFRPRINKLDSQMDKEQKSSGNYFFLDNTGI

uS3-GFP (S. cerevisiae) = target: T2, uS3-GFP (S. cerevisiae) (UniProt P05750); assay: as above
T2 sequence: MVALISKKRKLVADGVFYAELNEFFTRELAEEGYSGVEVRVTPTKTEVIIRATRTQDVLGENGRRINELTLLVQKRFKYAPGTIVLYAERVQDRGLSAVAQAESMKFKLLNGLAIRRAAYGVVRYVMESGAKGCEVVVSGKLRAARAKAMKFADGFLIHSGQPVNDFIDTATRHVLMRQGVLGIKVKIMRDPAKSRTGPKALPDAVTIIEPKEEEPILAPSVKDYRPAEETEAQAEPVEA

TAP-Dbp5 (S. cerevisiae) = target: T3, TAP-Dbp5 (S. cerevisiae) (UniProt P20449); assay: co-IP; yeast lysate; TAP-Dbp5 precipitated (IgG-Sepharose), in the presence of RNase A (0.2 mg/ml, 30 min at 4°C), western blot
T3 sequence: T1 sequence

Prt1-GFP (S. cerevisiae) [2] = target: Prt1-GFP (S. cerevisiae) (UniProt P06103); assay: co-IP; yeast lysate of sup45-2 cells; Prt1-GFP precipitated, western blot
Prt1-GFP (S. cerevisiae) [3] = target: Prt1-GFP (S. cerevisiae) (UniProt P06103); assay: co-IP; yeast lysates; GFP-Trap_A beads (GFP-tagged baits) or IgG-Sepharose (TAP-tagged baits), 3 h at 4°C, western blot; wild type and the strains sup45-2, rat8-2, rat7ΔN shifted to 37°C for 1 h; also 0.5 mg/ml cycloheximide for 30 min; also high copy RLI1
Hcr1-GFP (S. cerevisiae) = Hcr1-GFP (S. cerevisiae) (UniProt Q05775); assay: as above
[4] = target: T4, uL29 as bait of the co-IP of Figure 6C (tag not told) (S. cerevisiae) (UniProt P0CX84); assay: as above
T4 sequence: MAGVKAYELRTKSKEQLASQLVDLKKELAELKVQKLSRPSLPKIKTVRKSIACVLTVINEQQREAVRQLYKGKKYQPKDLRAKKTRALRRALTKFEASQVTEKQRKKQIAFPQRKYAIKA

eRF1-GFP (S. cerevisiae) = eRF1-GFP (S. cerevisiae) (UniProt P12385); assay: as above
GST-Dbp5 (S. cerevisiae) [5] = target: T5, GST-Dbp5 (S. cerevisiae) (UniProt P20449); assay: pull-down; GST-tagged proteins or GST on GSTrap 4B Glutathione Sepharose beads, incubated with E. coli lysates of His-eRF1 or His-eRF1Δ25 for 2 h at 4°C; 50 mM Tris-HCl pH 7.5, 150 mM NaCl, 2 mM MgCl, 5% glycerol, 1 mM DTT, 0.2% NP-40; with 1 mM AMP-PNP; western blot; only the target purified
T5 sequence: T1 sequence

[6] = target: GST-eRF3 (pGEX4T1-GST-SUP35) (S. cerevisiae) (UniProt P05453); assay: as above
Nip1-GFP (S. cerevisiae) = Nip1-GFP (S. cerevisiae) (UniProt P32497); assay: pull-down; Prt1-GFP and Nip1-GFP purified from yeast cells and precipitated, incubated with recombinantly expressed GST-Rli1, without or with AMP-PNP; western blot; only the target purified
Prt1-GFP (S. cerevisiae) [7] = target: Prt1-GFP (S. cerevisiae) (UniProt P06103); assay: as above
GST-Dbp5 (S. cerevisiae) [8] = target: T5, GST-Dbp5 (S. cerevisiae); assay: pull-down; competition assay: eRF1 lysate incubated with GST-Dbp5 bound to the GSTrap for 20 min at 4°C, then purified eRF3ΔN65 added in increasing amounts, 1 h at 4°C; 1 mM AMP-PNP; only the target purified
GST-Dbp5 (S. cerevisiae) [9] = target: T5, GST-Dbp5 (S. cerevisiae); assay: pull-down; as a4, but without AMP-PNP; only the target purified
[10] = target: GST-eRF3 (pGEX4T1-GST-SUP35) (S. cerevisiae) (UniProt P05453); assay: as above

| Substance | binding (uS3-GFP (S. cerevisiae)) | binding (TAP-Dbp5 (S. cerevisiae)) | binding (Prt1-GFP (S. cerevisiae) [2]) | binding (Prt1-GFP (S. cerevisiae) [3]) | binding (GST-Dbp5 (S. cerevisiae) [5]) | binding [6] | further results |
| --- | --- | --- | --- | --- | --- | --- | --- |
| eukaryotic release factor 1 (eRF1) (from UniProt P12385 1-437) | binds | binds | – | – | – | – | binding [1]: binds |
| eukaryotic release factor 3 (eRF3) (from UniProt P05453 1-685) | binds | – | no binding (condition: in sup45-2 cells) | binds | – | – | binding (Hcr1-GFP (S. cerevisiae)): binds; binding [4]: binds; binding (eRF1-GFP (S. cerevisiae)): binds |
| His-eRF1Δ25 (pET15b-HIS6-SUP45 delta 25; eRF1 lacking 25aa at the C-terminus) (from UniProt P12385 1-412) (domain or fragment) | – | – | – | – | no binding | no binding | – |
| GST-Rli1 (pGEX-6P-1-GST-RLI1) (from UniProt Q03195 1-608) | – | – | – | – | – | – | binding (Nip1-GFP (S. cerevisiae)): binds; binding (Prt1-GFP (S. cerevisiae) [7]): binds |

More lines, main results first:

| binding (uS3-GFP (S. cerevisiae)) | binding (TAP-Dbp5 (S. cerevisiae)) | binding (Prt1-GFP (S. cerevisiae) [2]) | binding (Prt1-GFP (S. cerevisiae) [3]) | binding (GST-Dbp5 (S. cerevisiae) [5]) | binding [6] | Substance | further results |
| --- | --- | --- | --- | --- | --- | --- | --- |
| – | binds | no binding (condition: in sup45-2 cells) | binds | – | – | Rli1-HA (from UniProt Q03195 1-608) | – |
| – | – | – | – | binds | binds | His-eRF1 (pET28a-HIS6-SUP45) (from UniProt P12385 1-437) | binding (GST-Dbp5 (S. cerevisiae) [8]): binds; binding (GST-Dbp5 (S. cerevisiae) [9]): no binding (condition: without AMP-PNP); binding [10]: binds |

From paper PMC6511868
